We go through 25 compounds from the antibiotic and cytotoxicity screens of Wong et al. (2023).

One experiment concerns HSkMC. The experiment in a line: cytotoxicity call (relative viability < 0.9). The following applies: 10 µM.
A further experiment concerns HepG2. As to the kind of experiment: cytotoxicity call (relative viability < 0.9). The following applies: 10 µM.
In another experiment the test system is S. aureus RN4220. The experiment in a line: growth inhibition call (relative growth <= 0.2). The following applies: 50 µM.

Structures are written as SMILES. This is one part of the list.

For `CC(C)(C)[C@H]1C=C(C(=O)N2CCCCCCC2)O[C@@H](OCc2ccc(COC(=O)NCCCCCC(=O)NO)cc2)C1`, the cytotoxicity call in the experiment on HSkMC and with HepG2 was “inactive” in each case. In addition, the growth inhibition call in the experiment on S. aureus RN4220 is “inactive”.
As for `CC(C)NC(=O)Nc1ccc2c(c1)C(=O)N([C@H](C)CO)C[C@@H](C)[C@@H](CN(C)S(=O)(=O)c1ccccc1)O2`, the cytotoxicity call in the experiment with HSkMC and with HepG2 was “inactive” throughout. Further, in the experiment with S. aureus RN4220, the growth inhibition call is “inactive”.
Regarding `O=C(N[C@@H]1CC[C@H](CC(=O)N2CCOCC2)O[C@@H]1CO)c1ccccn1`, the cytotoxicity call with HSkMC and with HepG2 was “inactive” each time. Further, the growth inhibition call in the experiment on S. aureus RN4220 was “inactive”.
Consider `Cc1ccc(S(=O)(=O)Nc2cccc3c2O[C@H](CN(C)C(=O)NC(C)C)[C@@H](C)CN([C@H](C)CO)C3=O)cc1`, for which the cytotoxicity call in the experiment on HSkMC and in the experiment on HepG2 was “inactive” throughout. Moreover, the growth inhibition call with S. aureus RN4220 is “inactive”.
On to `C[C@H](CO)N1C[C@H](C)[C@@H](CN(C)S(C)(=O)=O)Oc2ccc(NC(=O)CCC(F)(F)F)cc2CC1=O`, for which the cytotoxicity call in the experiment with HSkMC and in the experiment with HepG2 was “inactive” each time. In addition, the growth inhibition call in the experiment on S. aureus RN4220 is “inactive”.
For `COc1ccc(S(=O)(=O)Nc2ccc3c(c2)C(=O)N([C@@H](C)CO)C[C@H](C)[C@@H](CN(C)C(=O)CCC(F)(F)F)OCCCC[C@H](C)O3)cc1`, the cytotoxicity call in the experiment with HSkMC and in the experiment on HepG2 was “inactive” in each case. Also, the growth inhibition call in the experiment with S. aureus RN4220 is “inactive”.
Regarding `CN(C)CCCNC(=O)C[C@@H]1CC[C@@H]2[C@H](COC[C@H](O)CN2S(=O)(=O)c2ccc(Cl)cc2)O1`, the cytotoxicity call in the experiment on HSkMC and with HepG2 was “inactive” each time. In the experiment with S. aureus RN4220, the growth inhibition call is “inactive”.
In the case of `COc1ccc2[nH]c3c(-c4cccc5ccccc45)nccc3c2c1`, the cytotoxicity call with HSkMC is “active”. In the experiment with HepG2, the cytotoxicity call is “inactive”. Moreover, the growth inhibition call in the experiment on S. aureus RN4220 was “inactive”.
`C[C@@H]1CCCCO[C@@H](CN(C)Cc2ccc(Cl)c(Cl)c2)[C@H](C)CN([C@@H](C)CO)C(=O)c2cc(NC(=O)NC3CCCCC3)ccc2O1`: the cytotoxicity call with HSkMC and in the experiment on HepG2 was “inactive” each time. Also, the growth inhibition call in the experiment with S. aureus RN4220 was “inactive”.
`C[C@H]1CN([C@@H](C)CO)C(=O)c2cccc(NC(=O)Nc3ccc(C(F)(F)F)cc3)c2O[C@@H]1CN(C)Cc1ccc(C(=O)O)cc1`: the cytotoxicity call in the experiment on HSkMC and with HepG2 was “inactive” throughout. The growth inhibition call with S. aureus RN4220 was “inactive”.
For `COc1ccc(NC(=O)N(C)C[C@@H]2OCCCC[C@H](C)Oc3ccc(NC(=O)Nc4ccccc4)cc3C(=O)N([C@@H](C)CO)C[C@@H]2C)cc1`, the cytotoxicity call with HSkMC and with HepG2 was “inactive” in each case. Moreover, in the experiment on S. aureus RN4220, the growth inhibition call is “inactive”.
With `COc1ccc(NC(=O)N(C)C[C@@H]2Oc3ccc(NC(=O)CCCCCC(=O)Nc4ccccc4N)cc3C(=O)N([C@H](C)CO)C[C@H]2C)cc1`, the cytotoxicity call in the experiment with HSkMC and in the experiment on HepG2 was “inactive” throughout. In addition, the growth inhibition call with S. aureus RN4220 was “inactive”.
For `C[C@@H]1CN([C@H](C)CO)C(=O)c2cccc(NC(=O)Nc3ccc(C(F)(F)F)cc3)c2O[C@H]1CN(C)Cc1ccccc1`, the cytotoxicity call in the experiment on HSkMC and in the experiment on HepG2 was “inactive” throughout. Also, the growth inhibition call in the experiment on S. aureus RN4220 is “inactive”.
Consider `CC(C)CC#Cc1ccc2c(c1)O[C@H](CN(C)C(=O)c1ccccn1)[C@H](C)CN([C@@H](C)CO)S2(=O)=O`, for which the cytotoxicity call in the experiment on HSkMC and with HepG2 was “inactive” each time. The growth inhibition call in the experiment on S. aureus RN4220 is “inactive”.
For `COc1ccc(CN(C)C[C@@H]2Oc3ccc(NS(=O)(=O)c4c(C)noc4C)cc3CC(=O)N([C@@H](C)CO)C[C@@H]2C)cc1`, the cytotoxicity call in the experiment with HSkMC and in the experiment on HepG2 was “inactive” in each case. Further, the growth inhibition call in the experiment with S. aureus RN4220 was “inactive”.
For `CNC[C@@H]1Oc2ccc(NC(=O)Cn3cnnn3)cc2C(=O)N([C@H](C)CO)C[C@H]1C`, the cytotoxicity call in the experiment with HSkMC and in the experiment with HepG2 was “inactive” in each case. In addition, the growth inhibition call in the experiment with S. aureus RN4220 is “inactive”.
In the case of `C[C@@H]1CN([C@H](C)CO)C(=O)Cc2cc(NC(=O)Nc3cccc4ccccc34)ccc2O[C@H]1CN(C)C(=O)Nc1cccc2ccccc12`, the cytotoxicity call with HSkMC and with HepG2 was “inactive” throughout. The growth inhibition call in the experiment with S. aureus RN4220 is “inactive”.
Take `COc1cccc(C#Cc2ccc([C@H]3[C@@H](CO)N4C(=O)CN(S(=O)(=O)c5ccccc5C)C[C@H]34)cc2)c1`: the cytotoxicity call in the experiment with HSkMC and in the experiment with HepG2 was “inactive” in each case. Besides, the growth inhibition call in the experiment with S. aureus RN4220 is “inactive”.
Regarding `CCOC(=O)CC1(N)CCCCC1`, the cytotoxicity call in the experiment with HSkMC and with HepG2 was “inactive” in each case. Moreover, the growth inhibition call in the experiment on S. aureus RN4220 was “inactive”.
For the compound `CN1C(=O)c2cc(NC(=O)c3ccc(F)cc3)ccc2OC[C@@H]2O[C@H](CC(=O)N3CCOCC3)CC[C@@H]21`, the cytotoxicity call with HSkMC and in the experiment with HepG2 was “inactive” throughout. For the same compound, in the experiment on S. aureus RN4220, the growth inhibition call was “inactive”.
With `CC(=O)OCC=C(C)CCC=C(C)CCC=C(C)CCC=C(C)CCC=C(C)CCC=C(C)CCC=C(C)CCC=C(C)CCC=C(C)C`, the cytotoxicity call with HSkMC and with HepG2 was “inactive” in each case. Also, the growth inhibition call with S. aureus RN4220 is “inactive”.
For `CCCNC(=O)N1C[C@H](O)COC[C@@H]2O[C@H](CC(=O)N3CCN(C)CC3)CC[C@H]21`, the cytotoxicity call in the experiment on HSkMC and in the experiment with HepG2 was “inactive” throughout. The growth inhibition call in the experiment with S. aureus RN4220 is “inactive”.
On to `COc1cccc(NC(=O)N(C)C[C@H]2OCc3ccccc3-c3c(n(C)c4ccccc34)C(=O)N([C@H](C)CO)C[C@H]2C)c1`, for which the cytotoxicity call in the experiment with HSkMC and in the experiment on HepG2 was “inactive” throughout. In addition, the growth inhibition call in the experiment with S. aureus RN4220 was “inactive”.
For `O=C1O[C@@H](c2ccccc2)[C@@H](c2ccccc2)N2[C@@H](c3ccc(OCCO)cc3)[C@]3(C(=O)Nc4ccccc43)[C@@H](C(=O)N3CCCCCCC3)[C@H]12`, the cytotoxicity call in the experiment on HSkMC and with HepG2 was “inactive” in each case. Besides, the growth inhibition call in the experiment with S. aureus RN4220 is “inactive”.
For the compound `CCCC#Cc1ccc2c(c1)O[C@H](CN(C)S(=O)(=O)c1cccc(OC)c1)[C@@H](C)CN([C@@H](C)CO)S2(=O)=O`, the cytotoxicity call in the experiment on HSkMC (human skeletal muscle cells) and in the experiment on HepG2 was “inactive” throughout. In addition, in the experiment on S. aureus RN4220, the growth inhibition call was “inactive”.
